The campaign covered roughly 45,000 compounds. About 200 (0.44%) were called active. Roughly 7% stayed inconclusive and do not appear here. Calls come from the whole dose curve; as a rule, active = well fitted activation curve with a large enough effect; inconclusive = small, poorly fitted or top-dose-only effect; inactive = no such curve, though single readings can be large or run the other way. The list shows a part of the results.
Experiment: qHTS of TDP-43 Inhibitors: NCGC Sytravon Library Screen; note: 0% is about no effect; nearly all actives have a fitted effect of over 55% in size
Details: yeast TDP-43 toxicity rescue, BacTiter-Glo growth, 24 h; series mostly up to 46.1 µM; growth rescue (activation): at the top concentration
Outline: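 TDP-43-expressing yeast, pregrown in raffinose, seeded at OD600 0.02 in galactose medium with compound for 24 hr at 30 deg C. Growth read by BacTiter-Glo luminescence, so rescue of toxicity appears as activation.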
For `O=C(CC(=O)c1ccccc1)Nc1ccccc1C(F)(F)F`, the “growth rescue (activation)” value was inactive: -6.58%. In the case of `O=C(Nc1ccc(C(=O)N2CCOCC2)cc1)c1ccc([N+](=O)[O-])cc1`, the “growth rescue (activation)” value is reported as inactive: 10.7%. With `Cc1ccc(NC(=O)COC(=O)C2(c3ccc(Cl)cc3)CCCC2)cc1` the “growth rescue (activation)” value was inactive: 16%. With `Cc1cccc(NC(=S)NNc2cccc(Cl)c2)c1` the “growth rescue (activation)” value was inactive: 29.1%. In the case of `Cc1[nH][nH]c(=O)c1C(c1ccc(-c2ccc(Cl)c(C(=O)O)c2)o1)c1c(C)[nH][nH]c1=O`, the “growth rescue (activation)” value is reported as inactive: -7.99%. For `Cc1ccc(OCC(=O)NCCCNC(=O)c2ccccn2)cc1C`, the “growth rescue (activation)” value was inactive: 19%. In the case of `O=C(CNC(=O)c1ccccc1F)OCC(=O)N1CCCCC1`, the “growth rescue (activation)” value is reported as inactive: 4.78%. For `CN(CC(=O)Nc1ccc(Cl)c(Cl)c1)C(=O)C1CCC1`, the “growth rescue (activation)” value was inactive: 8.11%. In the case of `CC(C)c1nc(SCC(=O)NC2CCCCC2)c2ccccc2n1`, the “growth rescue (activation)” value is reported as inactive: 16%. In the case of `COc1ccccc1CCc1nnc(CCC(=O)NCC[C@@H]2C[C@@H]3C=C[C@H]2C3)o1`, the “growth rescue (activation)” value is reported as inactive: -2.08%. With `Cn1nc(C(F)(F)F)c(CNC(=O)C(C)(C)CCl)c1N1CCOCC1` the “growth rescue (activation)” value was inactive: 19.8%. In the case of `COc1ccccc1CNC(=O)C1CCN(S(=O)(=O)c2ccc(-n3cnnn3)cc2)CC1`, the “growth rescue (activation)” value is reported as inactive: 14.1%. In the case of `CCCCCn1c(=O)[nH]c2cc(C(=O)NCCN3C(C)CCCC3C)ccc2c1=O` (configuration not stated), the “growth rescue (activation)” value is reported as inactive: -2.62%. In the case of `CC1(C)O[C@H]2[C@@H](O1)[C@@H](C(=O)Nc1cc(F)ccc1F)O[C@@H]1OC(C)(C)O[C@@H]12`, the “growth rescue (activation)” value is reported as inactive: 6.5%. In the case of `C/C(=N/NC(=O)CNC(=O)c1ccccn1)c1ccc([N+](=O)[O-])cc1`, the “growth rescue (activation)” value is reported as inactive: 9.51%. In the case of `COc1ccc(/C=N/Nc2nc(Nc3ccccc3)nc(N3CCCC3)n2)cc1[N+](=O)[O-]`, the “growth rescue (activation)” value is reported as inactive: 6.05%. With `Fc1ccccc1CCNc1c2c(nc3ncnn13)CCCC2` the “growth rescue (activation)” value was inactive: 15.8%. In the case of `CCOc1ccc(C(=O)OCC(=O)N2CCCC2)cc1OCC`, the “growth rescue (activation)” value is reported as inactive: 7.64%. With `Nc1ncnc(NC2CCS(=O)(=O)C2)c1[N+](=O)[O-]` (configuration not stated) the “growth rescue (activation)” value was inactive: -0.0356%. For `O=C(C1CCN(S(=O)(=O)c2cccc3cccnc23)CC1)N1CCN(c2ccccn2)CC1`, the “growth rescue (activation)” value was inactive: 18.2%. For `C=CCNC(=O)COC(=O)c1cc(S(=O)(=O)N2CCCCC2)ccc1Cl`, the “growth rescue (activation)” value was inactive: 11.8%. With `CCS(=O)(=O)N1CCN(Cc2ccc([N+](=O)[O-])cc2)CC1` the “growth rescue (activation)” value was inactive: -4.06%. In the case of `CC(=O)N(C)c1ccc(NC(=O)c2cnn(C)c2)cc1`, the “growth rescue (activation)” value is reported as inactive: -4.56%. With `Cc1ccc(C(=O)NC(=S)Nc2cccc(NC(=O)c3ccccc3)c2)cc1[N+](=O)[O-]` the “growth rescue (activation)” value was inactive: 15.3%. In the case of `O=C(Nc1ccc(Cl)c(S(=O)(=O)N2CCOCC2)c1)c1ccc2c(c1)OCO2`, the “growth rescue (activation)” value is reported as inactive: 2.63%. For `Cc1c(C(=O)NN2CCOCC2)oc2ccccc12`, the “growth rescue (activation)” value was inactive: 11.6%. For `CCCCOCC(O)CCc1n[nH]c(=S)n1-c1ccccc1` (configuration not stated), the “growth rescue (activation)” value was inactive: 10.2%. For `COc1ccc(-c2ccc(=O)n(CC(=O)Nc3ccc4c(c3)OCCO4)n2)cc1`, the “growth rescue (activation)” value was inactive: -4.36%. With `CCC(C)n1nccc1NC(=O)C(C)Cl` (configuration not stated) the “growth rescue (activation)” value was inactive: 7.08%. For `O=C(NCc1cc(Cl)cc(Cl)c1)c1ccc2sc([C@@H]3O[C@H](CO)[C@H](O)[C@H](O)[C@H]3O)nc2c1`, the “growth rescue (activation)” value was inactive: 7.84%. With `CCCn1c2ccc(C)cc2c2nnc(SCCN3CCCCC3)nc21` the “growth rescue (activation)” value was inactive: 10.4%. In the case of `CNC(=O)CNC(=O)Nc1ccc(Cl)c(Cl)c1`, the “growth rescue (activation)” value is reported as inactive: 8.62%. With `COc1ccc(-c2nnc(SCC(=O)NNC(=O)Cc3ccccc3)n2C)cc1OC` the “growth rescue (activation)” value was inactive: 13.6%. In the case of `CCOC(=O)c1ccc(NC(=O)COc2ccccc2CNC2CCCC2)cc1`, the “growth rescue (activation)” value is reported as inactive: 15%. In the case of `CC(Cc1ccsc1)NC(=O)CCc1nnc(COc2ccccc2)o1` (configuration not stated), the “growth rescue (activation)” value is reported as inactive: 17.4%. In the case of `CN(C(=O)CN1CCC(NC(=O)c2ccccc2Br)CC1)C1CCCCC1`, the “growth rescue (activation)” value is reported as inactive: 8.48%. For `CSc1ncccc1C(=O)OCC(=O)NC(C)C`, the “growth rescue (activation)” value was inactive: 4.66%. With `COc1cc(OC)c(OC)cc1/C=N/NC(=O)c1cccc(S(=O)(=O)N2CCOCC2)c1` the “growth rescue (activation)” value was inactive: 13.6%. In the case of `CCOc1ccc(NC(=O)C[n+]2ccc(N(C)C)cc2)cc1`, the “growth rescue (activation)” value is reported as inactive: 11.1%. For `COc1ccc(N(C(=O)c2cccnc2)S(=O)(=O)c2cccc([N+](=O)[O-])c2)cc1`, the “growth rescue (activation)” value was inactive: 15.2%. For `FC(F)Oc1ccccc1/C=N/Nc1nc2ccccc2o1`, the “growth rescue (activation)” value was inactive: 10.2%. With `CCOc1ccc(NC(=O)c2ccccc2NC(=O)CN(C)CC(=O)Nc2ccc(C)cc2)cc1` the “growth rescue (activation)” value was inactive: 3.92%. With `O=S(=O)(NCC1CCCO1)c1ccc(S(=O)(=O)N(Cc2ccc(F)cc2)Cc2ccccn2)cc1` (configuration not stated) the “growth rescue (activation)” value was inactive: 10.5%. For `COc1cc(-c2nc(CN3CCN(CC(C)C)C(=O)[C@@H]3C)c(C)o2)ccc1F`, the “growth rescue (activation)” value was inactive: -7.76%. For `O=C(CSCc1c(Cl)cccc1Cl)N1CCOCC1`, the “growth rescue (activation)” value was inactive: 20.9%. For `CCCCC(=O)Nc1cccc(NC(=S)NC(C)=O)c1`, the “growth rescue (activation)” value was inactive: -7.13%. For `CCc1nnc(NC(=O)CSc2nc(-c3ccccc3)cc(-c3ccc(OC)cc3)c2C#N)s1`, the “growth rescue (activation)” value was inactive: 8.77%. For `COc1ccccc1N1CC(C(=O)Nc2cccc(C(=O)O)c2)CC1=O` (configuration not stated), the “growth rescue (activation)” value was inactive: -14.1%. For `CC(=O)Nc1cccc(-c2csc(C(C)(O)c3cccc(F)c3)n2)c1` (configuration not stated), the “growth rescue (activation)” value was inactive: 9.61%. In the case of `Cc1ccc(S(=O)(=O)NCCn2nc(C)nc2C)cc1`, the “growth rescue (activation)” value is reported as inactive: 9.4%. In the case of `CCC(Oc1ccc2c(=O)c(-c3ccccc3OC)coc2c1)C(=O)OCc1ccccc1` (configuration not stated), the “growth rescue (activation)” value is reported as inactive: 14.6%. In the case of `COc1ccc2c(CC(=O)Nc3ncc(C)s3)coc2c1`, the “growth rescue (activation)” value is reported as inactive: 5.67%. For `O=[N+]([O-])c1cccc(/C=N/N2CCN(Cc3ccccc3)CC2)c1`, the “growth rescue (activation)” value was inactive: 3.21%. With `CSc1nc2ccsc2c(=O)n1-c1cccnc1` the “growth rescue (activation)” value was inactive: 2.09%. In the case of `CN(CC(O)COc1ccccc1F)C1CCCCC1` (configuration not stated), the “growth rescue (activation)” value is reported as inactive: -4.42%. In the case of `Cc1cccc(NC(=O)CSc2c3c(nc4ccccc24)CCC3)n1`, the “growth rescue (activation)” value is reported as inactive: 9.65%. With `Cc1ccc(S(=O)(=O)N2CCC(C(=O)NCCCN3CCCC3=O)CC2)cc1` the “growth rescue (activation)” value was inactive: 9.59%. For `COc1ccc(-c2nc(CN3CCCCC3c3cccnc3)c(C)o2)c(F)c1` (configuration not stated), the “growth rescue (activation)” value was inactive: 2.27%. In the case of `Nc1nccnc1C(=O)OCC(=O)Nc1cccc(S(=O)(=O)N2CCCCC2)c1`, the “growth rescue (activation)” value is reported as inactive: 5.6%. For `CC1(C(=O)NS(=O)(=O)c2cccc(OC(F)F)c2)CCN1C(=O)COc1ccc(Cl)cc1` (configuration not stated), the “growth rescue (activation)” value was inactive: -5.68%. For `O=C(CSc1nc(O)cc(=O)[nH]1)C1CC1`, the “growth rescue (activation)” value was inactive: -11.4%. For `O=C(Cn1cccc1C(=O)c1ccccc1)NCc1cccc(Cl)c1`, the “growth rescue (activation)” value was inactive: -4.51%. With `COc1ccc(N(C(=O)c2snc(C(N)=O)c2N)C(C(=O)NC2CCCC2)c2cccs2)cc1OC` (configuration not stated) the “growth rescue (activation)” value was inactive: -8.28%. For `CC(C)c1ccccc1NC1=CC(=O)CC(C)(C)C1`, the “growth rescue (activation)” value was inactive: 25.9%. For `CCn1nc([N+](=O)[O-])c(C(C#N)c2nc3ccccc3n2C)c(Cl)c1=O` (configuration not stated), the “growth rescue (activation)” value was inactive: 7.65%. In the case of `Cc1cccc(C(=O)Nc2ccc3c(c2)nc(C)n3C)c1`, the “growth rescue (activation)” value is reported as inactive: 4.5%. For `CC(CC(=O)Nc1ccccc1C(F)(F)F)c1ccccc1` (configuration not stated), the “growth rescue (activation)” value was inactive: -13.4%.
